# PubChem BioAssay AID504339 (National Center for Advancing Translational Sciences (NCATS), 2011)
# In all, about 390,000 compounds went through this assay and about 17,000 (4.4%) were called active. The shares of active, inactive and inconclusive entries below differ from those in the screen. The call rests on the fitted dose curve; in most records, active means well fitted inhibition curve with a large enough effect; inconclusive means small, poorly fitted or top-dose-only effect; inactive means no such curve, though single readings can be large or run the other way. Where the call is inconclusive, the potency comes from a doubtful curve fit.
# Molecular target: Lysine-specific demethylase 4A (Homo sapiens) (UniProt O75164)
# Chain of UniProt O75164 (O75164 whole entry, looked up, the tested form may be a part): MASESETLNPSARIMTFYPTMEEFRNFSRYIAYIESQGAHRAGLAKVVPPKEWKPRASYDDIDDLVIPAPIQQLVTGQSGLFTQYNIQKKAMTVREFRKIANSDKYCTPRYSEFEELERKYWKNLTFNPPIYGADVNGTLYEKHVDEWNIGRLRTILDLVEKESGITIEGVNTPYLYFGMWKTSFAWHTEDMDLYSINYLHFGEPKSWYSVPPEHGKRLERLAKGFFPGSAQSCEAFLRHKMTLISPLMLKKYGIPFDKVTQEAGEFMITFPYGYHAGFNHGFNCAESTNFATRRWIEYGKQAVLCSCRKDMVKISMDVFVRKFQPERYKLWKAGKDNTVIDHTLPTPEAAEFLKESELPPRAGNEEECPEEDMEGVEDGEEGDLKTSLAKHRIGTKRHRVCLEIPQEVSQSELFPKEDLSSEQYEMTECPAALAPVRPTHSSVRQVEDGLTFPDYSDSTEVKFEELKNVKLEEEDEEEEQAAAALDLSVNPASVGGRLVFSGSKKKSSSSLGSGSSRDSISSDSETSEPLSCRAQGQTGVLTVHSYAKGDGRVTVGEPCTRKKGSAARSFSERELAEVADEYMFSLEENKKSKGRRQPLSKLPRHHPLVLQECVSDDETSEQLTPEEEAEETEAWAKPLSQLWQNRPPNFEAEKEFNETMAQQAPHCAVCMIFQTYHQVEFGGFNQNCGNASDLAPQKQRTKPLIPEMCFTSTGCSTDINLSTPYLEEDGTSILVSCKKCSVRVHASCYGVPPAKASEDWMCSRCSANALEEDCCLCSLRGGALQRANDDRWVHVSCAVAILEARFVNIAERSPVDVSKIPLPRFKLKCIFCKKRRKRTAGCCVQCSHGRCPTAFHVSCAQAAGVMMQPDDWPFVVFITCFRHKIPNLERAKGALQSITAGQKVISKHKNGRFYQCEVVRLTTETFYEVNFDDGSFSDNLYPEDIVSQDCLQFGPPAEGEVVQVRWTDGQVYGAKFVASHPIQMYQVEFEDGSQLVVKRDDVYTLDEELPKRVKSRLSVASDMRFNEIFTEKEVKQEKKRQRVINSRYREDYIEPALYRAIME
# Assay: qHTS Assay for Inhibitors of JMJD2A-Tudor Domain; further: nearly all actives have a fitted effect of over 50% in size
# Details: AlphaScreen JMJD2A-Tudor / H3K4me3 peptide binding; activity change, negative = inhibition: at 114 µM (top of the series)
# On the % scale 0 is the no-effect control and ±100 the full control effect; potency means the concentration at half of the fitted maximal effect; tags describe the fitted curve by direction and shape.
SMILES,"activity change, negative = inhibition",Potency
O=C(CN1C(=O)NC2(CCOc3ccccc32)C1=O)NCCc1ccc(F)cc1 (centres undefined),inactive: 3.02%,–
S=C(Nc1ccccn1)c1ccccn1,–,active: 5.01 µM
CCCn1c(C(C)Nc2nc(-c3ccc(Cl)c([N+](=O)[O-])c3)cs2)nc2ccccc21 (centres undefined),–,"inconclusive: 12.6 µM [inhibitor, partial curve]"
O=C(NC(=S)Nc1ccc2ncccc2c1)c1ccccc1,–,"inconclusive: 39.8 µM [inhibitor, single point]"
CCOc1ccccc1OCC(=O)Nc1ccc(N2CCOCC2)cc1N1CCOCC1,–,"inconclusive: 89.1 µM [inhibitor, single point]"
Oc1ccc(N2CCN(c3ncnc4sc5c(c34)CCC5)CC2)cc1,–,"inconclusive: 15.8 µM [inhibitor, full curve, poor fit]"
Cc1ccsc1CN(C)CC(=O)NCC(=O)Nc1ccc(F)c(F)c1F,inactive: 2.6%,–
CN1C(=O)CC(c2cn(Cc3ccccc3)c3ccccc23)C1=O (centres undefined),–,"inconclusive: 3.55 µM [inhibitor, partial curve, poor fit]"
O=C(NC(=S)NNC(=O)c1ccc(Cl)cc1Cl)c1cccnc1,–,active: 44.7 µM
CN1/C(=C\C(=O)c2cccc([N+](=O)[O-])c2)Sc2ccccc21,–,"inconclusive: 10 µM [inhibitor, partial curve, poor fit]"
C=CCn1c(O)c(N=NC(=S)Nc2ccc(OC)cc2)c2ccccc21,–,"inconclusive: 7.94 µM [inhibitor, full curve]"
COc1ccccc1C(=O)NC(CCSC)C(=O)N1CCC(Cc2ccccc2)CC1 (centres undefined),–,"inconclusive: 31.6 µM [inhibitor, full curve, poor fit]"
C/C(CCC(=O)O)=N/Nc1ccc([N+](=O)[O-])cc1[N+](=O)[O-],–,"inconclusive: 63.1 µM [inhibitor, partial curve, poor fit]"
CCN1CCN(c2ccc(NC(=O)c3ccc4c(c3)[nH]c(=O)n4Cc3ccc(F)cc3)cc2)CC1,–,"inconclusive: 50.1 µM [inhibitor, partial curve]"
COc1ccc(NC(=O)COc2ccc(/C=C/c3cc[n+](C)cc3)cc2OC)cc1,–,"inconclusive: 39.8 µM [inhibitor, single point]"
COc1cc(OC)c(OC)cc1/C=C/c1ccnc2ccccc12,–,"inconclusive: 79.4 µM [inhibitor, partial curve]"
O=c1[nH]c(CN2CCN(S(=O)(=O)c3ccc4ccccc4c3)CC2)nc2ccccc12,–,"inconclusive: 22.4 µM [inhibitor, partial curve]"
Cc1cccc(/C=N/NC(=O)Cn2nc(C)cc2C)n1,–,"inconclusive: 0.708 µM [inhibitor, full curve, poor fit]"
Cc1nc(NC(C)c2ccccc2)c2c3c(sc2n1)CCC3 (centres undefined),inactive: -12.6%,–
NC(=O)c1nsc(C(=O)N(CC(=O)NC2CCCCC2)Cc2ccc(F)cc2)c1N,inactive: -8.97%,–
O=C(CCCN1C(=O)/C(=C/c2cccc(Br)c2)SC1=S)Nc1ccccn1,–,"inconclusive: 5.01 µM [inhibitor, full curve]"
CCc1ccccc1Nc1nn2c(=O)c3ccc(C(=O)NCc4ccccn4)cc3nc2s1,–,"inconclusive: 50.1 µM [inhibitor, partial curve]"

SMILES,"activity change, negative = inhibition",Potency
CSCC[C@H](NC(=O)[C@H](Cc1ccccc1)n1c(=O)[nH]c2ccccc2c1=O)C(=O)N1CCC(C(=O)O)CC1,inactive: -9.52%,–
O=C(NCc1ccc2c(c1)OCO2)c1cc(-c2ccccc2)nn1CC1CC(c2cccnc2)=NO1 (centres undefined),–,"inconclusive: 100 µM [inhibitor, partial curve, poor fit]"
O=[N+]([O-])c1ccc2nc(NCCCO)nc(-c3ccccc3)c2c1,–,"inconclusive: 28.2 µM [inhibitor, single point]"
CCOC(=O)c1c(-c2ccco2)csc1NC(=O)COC(=O)c1cnccn1,–,"inconclusive: 44.7 µM [inhibitor, partial curve]"
CCn1cc(S(=O)(=O)N2CCc3ccccc3C2)cn1,inactive: 1.77%,–
Cc1cccc(NC(=O)c2oc3ccccc3c2NC(=O)c2cc(=O)c3ccccc3o2)c1,inactive: -17.7%,–
COc1cccc(-c2nnc(SCC(=O)N(C)C3CCCCC3)o2)c1,inactive: -4.3%,–
O=C(CSc1ccc2nnc(-c3cccs3)n2n1)N1CCOCC1,–,"inconclusive: 50.1 µM [inhibitor, partial curve]"
CN1CCc2nc3sc(C(=O)c4ccc(F)cc4)c(N)c3cc2C1,–,"inconclusive: 3.98 µM [inhibitor, full curve, poor fit]"
Cc1[nH]c(=S)[nH]c(=O)c1CCC1OCCO1,inactive: -9.15%,–
CC(C)C[C@@H](CNCC(=O)[C@H](C)NC(=O)c1[nH]cnc1C(=O)N[C@@H](C)CN)NC(=O)c1nc[nH]c1C(=O)N[C@@H](CC(=O)O)C(=O)O,–,active: 79.4 µM
COc1cc(-c2nnc(NC(=O)CCS(=O)(=O)c3ccc(F)cc3)o2)cc(OC)c1OC,–,"inconclusive: 89.1 µM [inhibitor, partial curve]"
Cc1cc(Cl)c(OCCCn2ccnc2)c(Br)c1,–,active: 22.4 µM
O=S(=O)(c1ccc(F)cc1)N1CCN(CC(O)COCc2ccccc2)CC1 (centres undefined),–,active: 5.62 µM
CCN(CC)S(=O)(=O)c1ccc(N=Nc2c(C)[nH]n(C(N)=S)c2=O)cc1,–,"inconclusive: 79.4 µM [inhibitor, single point]"
CCOc1ccc(NC(=O)CN(Cc2ccccc2)S(=O)(=O)c2ccc3nc(C)sc3c2)cc1,inactive: -18.3%,–
Cn1c(=O)[nH]c2c(c1=O)CCO2,inactive: -5.56%,–
Cc1nc(SCC(=O)O)c(C#N)c2c1CCCC2,–,"inconclusive: 3.98 µM [inhibitor, full curve, poor fit]"
CC(=O)C1=C(C)NC(SCC(N)=O)=C(C#N)C1C (centres undefined),–,active: 12.6 µM
O=C(O)c1ccccc1-c1nc2ccccc2[nH]1,–,"inconclusive: 56.2 µM [inhibitor, partial curve]"
N#Cc1nc(-c2cccc(Cl)c2)oc1NCc1cccnc1,–,"inconclusive: 56.2 µM [inhibitor, partial curve]"
O=C(N/N=C/c1ccc2c(c1)OCO2)c1ccc(COc2cccc3cccnc23)cc1,inactive: -4.76%,–
